Data reported in publication PMC6919601, “Identification of Plasmodium dipeptidyl aminopeptidase allosteric inhibitors by high throughput screening” (PLoS ONE, 2019).
The whole screen tested about 110,000 compounds, of which about 230 (0.21%) showed an effect of 50% or more. This is one part of the list.

The molecules below were run against DPAP1 (Plasmodium falciparum, UniProt Q8IIJ9) (assay: primary screen, percent inhibition; read by cleavage of a fluorogenic dipeptide substrate; higher = more effect of the substance).
Set-up: species or system P. falciparum D10 trophozoite lysates; single well
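Also: 30 min substrate incubation versus DMSO and 10 µM JCP410 controls.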

Sequence of DPAP1 (Q8IIJ9 whole entry, looked up): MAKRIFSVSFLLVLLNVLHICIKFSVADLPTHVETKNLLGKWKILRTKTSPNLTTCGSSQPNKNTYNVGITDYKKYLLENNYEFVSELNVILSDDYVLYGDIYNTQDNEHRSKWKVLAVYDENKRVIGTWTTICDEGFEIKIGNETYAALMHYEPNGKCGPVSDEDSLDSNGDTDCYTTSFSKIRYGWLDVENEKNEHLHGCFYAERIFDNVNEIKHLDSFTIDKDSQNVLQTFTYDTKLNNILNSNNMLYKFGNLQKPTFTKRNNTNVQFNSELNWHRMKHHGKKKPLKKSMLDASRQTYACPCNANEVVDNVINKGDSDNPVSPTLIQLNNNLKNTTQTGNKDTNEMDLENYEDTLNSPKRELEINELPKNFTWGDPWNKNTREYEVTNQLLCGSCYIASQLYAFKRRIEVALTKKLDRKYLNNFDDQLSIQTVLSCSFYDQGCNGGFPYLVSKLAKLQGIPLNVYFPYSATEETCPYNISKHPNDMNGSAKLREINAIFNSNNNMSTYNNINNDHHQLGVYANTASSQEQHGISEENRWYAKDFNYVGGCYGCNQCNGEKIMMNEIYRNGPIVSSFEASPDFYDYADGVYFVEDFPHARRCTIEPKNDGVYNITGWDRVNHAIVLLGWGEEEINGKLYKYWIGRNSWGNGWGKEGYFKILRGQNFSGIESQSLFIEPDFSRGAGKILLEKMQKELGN

| SMILES | % Inhibition @ 10 uM |
| --- | --- |
| CCn1nccc1C(=O)Nc1ccc(C)c(Cl)c1 | 3.9% |
| CCC(C)C(Nc1ncnc2ccccc12)C(=O)O (stereo not drawn) | 1.52% |
| OCCN(CCO)Cc1cc(F)ccc1F | -5.31% |
| Cc1ccc(-c2c(Nc3cccnc3)c(=O)c2=O)cc1 | 3.04% |
| Cc1ccccc1C(=O)Nc1cccc(C(F)(F)F)c1 | -3.94% |
| O=C(O)c1c(CNCCC2=CCCCC2)c2ccccc2n1Cc1ccccc1F | -3.21% |
| N=C1/C(=C\c2ccc(SCc3ccc(Cl)cc3)o2)C(=O)N=C2SC=NN12 | -7.13% |
| CCOCCCNC(=O)CS(=O)(=O)Cc1nc(-c2ccc(C)cc2)oc1C | -5.82% |
| O=C(NC1CCN(Cc2ccccc2)CC1)c1ccccc1Br | -1.22% |
| O=C(C1CCN(c2nc3ccccc3n3cccc23)CC1)N1CCN(c2ccccn2)CC1 | 5.04% |
| O=C(Nc1ccc(S(=O)(=O)Nc2cnc3ccccc3n2)cc1)c1cccnc1 | -1.88% |
| Cc1ccc(S(=O)(=O)N(C)CCc2c[nH]c3ccccc23)cc1 | -3.04% |
| CC1CCCCN1C(=S)NCCc1ccccc1 (stereo not drawn) | -2.5% |
| Cc1cc(=O)n2nc(N(C)CC(=O)O)sc2n1 | -1.6% |
| COC(=O)Nc1ccc(Br)cn1 | 6.5% |
| CCOc1ccccc1/C=C1N=C(/C=C/c2ccccc2)OC/1=O | 7.01% |
| Cc1cccc(C)c1NC(=O)C(c1ccccc1)N(C(=O)C1CCC(=O)N1)c1ccccc1 (stereo not drawn) | 2.39% |
| Cc1cccc(OCC(=O)N2CCc3ccccc32)c1 | -1.38% |
| COC(=O)C(Cc1ccccc1)NC(=O)c1ccc(-c2ccccc2)cc1 (stereo not drawn) | -2.51% |
| CCC(C(=O)Nc1ccc(S(=O)(=O)N2CCC(C)CC2)cc1)c1ccccc1 (stereo not drawn) | -0.0938% |
| O=C(CCCSc1nc(-c2ccco2)cc(C(F)(F)F)n1)NCc1ccncc1 | 0.0289% |
| O=C(COc1ccc(Cl)cc1Cl)N(c1ccccc1)c1ccccc1 | 4.93% |
| CC(=O)c1ccc(NC(=O)C(C(C)C)N2C(=O)c3ccccc3C2=O)cc1 (stereo not drawn) | 8.19% |
| CCc1ccc(-n2c(SCC(=O)NCc3ccco3)nc3nnc(C)c-3c2N)cc1 | 4.15% |
| CC(=O)N1c2ccccc2N=C2CC(c3ccc(N(C)C)cc3)CC(O)=C2C1c1ccccc1 (stereo not drawn) | -2.68% |

| SMILES | % Inhibition @ 10 uM |
| --- | --- |
| COCCNC(=O)C(C)n1nc(C)c2c(C)n(-c3ccccc3)nc2c1=O (stereo not drawn) | -1.57% |
| CC(=O)Nc1ccc(N/C=C(/C#N)c2nc(-c3ccc(-c4ccccc4)cc3)cs2)cc1 | 1.08% |
| Cc1ccc2[nH]c(SCC(=O)Nc3cccc(C(F)(F)F)c3)nc2c1 | 0.5% |
| COc1ccc(CC(=O)N2CCN(c3ccc(Cl)cc3)CC2)cc1OC | 1.15% |
| O=C(NCCCc1nc2ccccc2n1Cc1ccc(F)cc1)c1ccco1 | 2.62% |
| O=C(NCCCc1nc2ccccc2n1C/C=C/c1ccccc1)c1ccco1 | 3.74% |
| Cc1nc(-n2cccc2)sc1C(=O)NCc1ccccc1Cl | 0.0882% |
| Cc1ccccc1OCc1nnc(-c2ccccc2Cl)o1 | -4.82% |
| CC1CCCC(NC(=O)CN(C)S(=O)(=O)c2cc(Br)cnc2N)C1C (stereo not drawn) | 3.3% |
| COc1ccc(C)c2sc(N(CCN(C)C)C(=O)CN3C(=O)c4ccccc4C3=O)nc12 | 6.08% |
| COC(=O)C1=C(C)NC(=O)CC1c1cccc(Br)c1 (stereo not drawn) | 3.48% |
| Cc1ccc(CNC(=O)C(NS(=O)(=O)c2cccs2)c2ccccc2)cc1 (stereo not drawn) | -3.36% |
| O=c1ncn(-c2cccc(F)c2)c2ncccc12 | -7.17% |
| O=C(c1ccccc1)N1CCC2(Cl)CCCCC2C1c1ccccc1 (stereo not drawn) | -3.53% |
| O=C(CCc1nc2cccnc2n1-c1ccccc1)NC1CCCC1 | -1.08% |
| Cn1cc(C(=O)N2CCN(Cc3ccccc3)CC2)c2c3ccccc3n(C)c2c1=O | -6.26% |
| COc1cc(OC)cc(C(=O)Nc2ccc(S(=O)(=O)N3CCC(C)CC3)cc2)c1 | -1.78% |
| Cc1ccc(CC(=O)N2CCCC(c3nc(O)c4nnn(Cc5cccs5)c4n3)C2)cc1 (stereo not drawn) | -2.92% |
| Cc1c(C(=O)N2CCOCC2)oc2c1-c1nn(CC(=O)NC(C)c3ccccc3)cc1CC2 (stereo not drawn) | 1.17% |
| O=C(NCCCN1CCOCC1)c1cccnc1SCc1ccccc1Cl | -0.458% |
| CC1CCCCN1C(=O)c1ccc([N+](=O)[O-])cc1Cl (stereo not drawn) | 2.46% |
| Cc1nn(C(C)C(=O)N2CC(C)CC(C)C2)c(=O)c2cc3occc3n12 (stereo not drawn) | -0.281% |
| CSc1ncc(Cl)c(C(=O)Nc2nnc(SC/C=C/c3ccccc3)s2)n1 | 5.29% |
| OCCNCc1cc(Cl)ccc1OCc1ccccc1 | 4.44% |
| O=C(Nc1nc2c(s1)CCCC2)c1ccc(-c2ccccc2)cc1 | 2.79% |

| SMILES | % Inhibition @ 10 uM |
| --- | --- |
| Cc1ccccc1C(=O)N1CCN(c2nc(-c3ccccc3)cs2)CC1 | 2.99% |
| Cc1ccc(Cn2nnc3c(=O)n(CC(=O)NCC4CCCO4)cnc32)cc1 (stereo not drawn) | -7.71% |
| Cc1ccc(OCC(O)CNC(C)(C)C)cc1C (stereo not drawn) | -3.94% |
| Cc1sc(C2C(C#N)=C(N)OC3=C2C(=O)CC(C)(C)C3)cc1COc1ccc(F)cc1Cl (stereo not drawn) | 4.33% |
| CN1CCN(C(=O)c2cc3nc(-c4cccs4)cc(C(F)(F)F)n3n2)CC1 | 1.72% |
| CC1=C(C(=O)Nc2ccccc2)C(c2ccc(C)o2)n2c(s/c(=C/c3c(C)nn(C)c3C)c2=O)=N1 (stereo not drawn) | 4.05% |
| CC(NC(=O)CN(C)S(=O)(=O)c1cccc2nsnc12)c1ccccc1 (stereo not drawn) | 2% |
| COc1ccc(CCNC(=O)c2nn(C)c3c2CS(=O)(=O)c2ccccc2-3)cc1OC | 5.82% |
| Cc1ccc(N(C)S(=O)(=O)c2ccc(Cl)cc2)cc1 | 0.345% |
| Cc1ccc(N2CCN(C(=O)NC34CC5CC(CC(C5)C3)C4)CC2C)cc1 (stereo not drawn) | 0.35% |
| C=C(C)CNC(=S)Nc1ccc(Br)cc1 | 0.634% |
| CC(C)C[C@H](NC(=O)c1cccc(-c2ccc(S(N)(=O)=O)cc2)c1)C(=O)NCC#N | -8.81% |
| COCCCN1C2=C(C(=O)CC(C)(C)C2)C(c2ccccc2OC)C2=C1CC(C)(C)CC2=O | -3.41% |
| COC(=O)c1ccc(C2C3=C(O)CCCC3=NC(C)=C2C(=O)OCc2ccccc2)cc1 (stereo not drawn) | 4.1% |
| CCCN1CCC(N2CCN(c3ccccn3)CC2)CC1 | 1.57% |
| O=C(CSc1ccc(-c2cccs2)nn1)NCc1ccc2c(c1)OCO2 | 3.02% |
| COC(=O)c1cc(S(=O)(=O)N2CCCN(Cc3ccc(F)cc3)C2)cn1C | 2.42% |
| CCn1cc(C(=O)Nc2ccc(CC#N)cc2)c(C)n1 | 1.93% |
| COc1ccc(C(=O)NC(C)c2cc3c(cc2Br)OCCO3)cc1 (stereo not drawn) | 5.24% |
| O=C(CSc1nc2ccccc2s1)Nc1cccn2cc(-c3ccccc3)nc12 | 0.815% |
| Cc1cc(C)cc(NC(=O)CN(c2ccc(F)cc2)S(=O)(=O)c2ccccc2)c1 | -6.48% |
| O=C(Nc1nncs1)C1COc2ccccc2O1 (stereo not drawn) | 0.9% |
| CC1CCc2nc(NC(=O)CN3CCN(Cc4ccccc4)CC3)sc2C1 (stereo not drawn) | -3.43% |
| CC(C)(C)c1cc(C(=O)Nc2cccc(N)c2)cc(C(C)(C)C)c1 | -1.45% |
| CC1=C(C(=O)OCCc2ccccc2)C(c2ccccn2)C2=C(O)CCCC2=N1 (stereo not drawn) | 1.26% |

| SMILES | % Inhibition @ 10 uM |
| --- | --- |
| COc1ccc(NC(=O)N2CCCCC2)cc1 | -7.98% |
| Cc1ccc(N/C=C(\C#N)C(=O)NC(=O)Cc2ccccc2)c(O)c1 | -4.75% |
| CCN(CC)CCN1CC(=O)C(c2nc3cc(C)ccc3[nH]2)=C1N | 5.29% |
| N#C/C(=C\c1cc2c(cc1Cl)OCO2)c1nc2ccccc2[nH]1 | 0.76% |
| CN(C)CCN(C(=O)CCc1ccccc1)c1nc2ccc(F)cc2s1 | -0.0871% |
| O=C(Nc1cc(-c2cccc(Cl)c2)no1)c1noc2c1CCCCC2 | 2.09% |
| CCCN1C(=O)CN(C2CCC(C)CC2)C(=O)C1c1ccc(F)cc1 (stereo not drawn) | -5.8% |
| Fc1ccccc1OCCn1ccnc1 | -6.65% |
| COC(=O)c1cc(S(=O)(=O)N2CCC(c3ccccc3)C2)c[nH]1 (stereo not drawn) | 1.09% |
| Oc1ccccc1CN1CCc2ccccc2C1 | -1.41% |
| CS(=O)(=O)c1ccc(N2CCN(c3ccccc3)CC2)c(S(=O)(=O)N2CCOCC2)c1 | -5.63% |
| c1cncc(CSc2ccc(-c3cccs3)nn2)c1 | 1.68% |
| c1ccc(-n2ncc3c(N4CCN(c5ccccn5)CC4)ncnc32)cc1 | 7.5% |
| COc1ccccc1C1C(C#N)=C(N)Oc2c1c(C)nn2-c1ccccc1 (stereo not drawn) | 1.26% |
| CSC1=NSC2=NC(=O)/C(=C\c3ccc(OCC(=O)O)cc3)C(=N)N12 | -2.12% |
| CCCCOc1ccc(C(=O)NCc2cn3ccsc3n2)cc1 | 3.94% |
| COc1ccccc1C(=O)Nc1nnc(S(=O)(=O)N2CCC(C)CC2)s1 | -1.72% |
| COCCO/C(O)=C1\C(C)=NC2=C(C(=O)CC(c3ccccc3OC)C2)C1c1cccc(O)c1 (stereo not drawn) | 3.87% |
| COc1cc(C2C(C#N)=C(C)N=C3CC(C)(C)CC(O)=C32)cc(Cl)c1O (stereo not drawn) | -1.2% |
| CCc1ccc2nc(Cl)c(C3NC(=O)c4ccccc4N3)cc2c1 (stereo not drawn) | -6.57% |
| O=C(NC1CCCCCC1)c1cc(S(=O)(=O)N2CCCCC2)c[nH]1 | -3.47% |
| O=C(NCc1ccco1)c1cccnc1Cl | -0.48% |
| COc1ccccc1C(=O)Nc1nc2nc(C)c(Cl)c(C)n2n1 | 3.66% |
| CCCC1=C(C(=O)OCC)C(c2ccc(CC)cc2)C(C#N)=C(N)O1 (stereo not drawn) | -3.79% |
